Assay results: PubChem BioAssay AID894 (National Center for Advancing Translational Sciences (NCATS), 2007)
Out of some 150,000 compounds screened, about 6,500 (4.3%) were called active. Inconclusive means that the source gave no clear call. Such entries were picked first, then a sample of the others. The call rests on the fitted dose curve; in most records, active means well fitted inhibition curve with a large enough effect (not every such curve was filed as active); inconclusive means small, poorly fitted or top-dose-only effect, or another doubt; inactive means no such curve, though single readings can be large or run the other way. Potencies of inconclusive entries are left out as doubtful fits.

Molecular target: 15-hydroxyprostaglandin dehydrogenase [NAD(+)] (Homo sapiens) (UniProt P15428)
Assay: qHTS Assay for Inhibitors of HPGD (15-Hydroxyprostaglandin Dehydrogenase)
Settings: purified HPGD, NADH fluorescence kinetic, PGE2 substrate; activity change, negative = inhibition: active compounds read low
Method in brief: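 NADH formation kinetics: reaction with 30 uM PGE2 and 1 mM NAD+ (final), 20 nM enzyme, Tris-HCl pH 8 with Tween 20, after 15 min compound preincubation at room temperature. Fluorescence change, last versus first of five reads.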
On the % scale 0 is the no-effect control and ±100 the full control effect; potency means the concentration at half of the fitted maximal effect; tags describe the fitted curve by direction and shape.

Chain of UniProt P15428 (P15428 whole entry, looked up): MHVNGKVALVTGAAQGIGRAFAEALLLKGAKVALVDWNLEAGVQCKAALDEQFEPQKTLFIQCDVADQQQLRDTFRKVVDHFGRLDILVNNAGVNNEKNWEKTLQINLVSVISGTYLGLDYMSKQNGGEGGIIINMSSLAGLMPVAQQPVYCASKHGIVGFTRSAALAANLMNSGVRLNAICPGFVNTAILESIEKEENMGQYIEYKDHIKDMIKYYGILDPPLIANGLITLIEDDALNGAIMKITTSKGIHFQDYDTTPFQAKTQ

| Structure (SMILES) | Potency | activity change, negative = inhibition |
| --- | --- | --- |
| Oc1ccc(Cl)cc1-c1cc(-c2ccccc2)n[nH]1 | active: 15.8 µM | – |
| CCOc1cc(/C=N\NC(=O)Cc2ccccc2)ccc1OCC(=O)Nc1ccc(C)c(C)c1 | – | inactive: -11.3% |
| CCCCC(C)(C)[C@H](O)/C=C/[C@H]1[C@H](O)CC(=O)[C@@H]1C/C=C\CCCC(=O)O | – | inactive: -3.73% |
| COC(=O)Cc1c(C)c2ccc(O)c(CN3CCCC(C)C3)c2oc1=O (configuration not stated) | inconclusive [inhibitor, full curve] | – |
| O=C(Nc1ccccn1)C(NS(=O)(=O)c1cccc2nsnc12)c1ccccc1 (configuration not stated) | active: 31.6 µM | – |
| CCc1cc(C=NC2CCCCC2)c(O)s1 | active: 4.47 µM | – |
| Cc1cc2nn(-c3cccc4ccccc34)nc2cc1N | inconclusive [inhibitor, partial curve] | – |
| COC(=O)c1ccc(O)c(Sc2cc(C(=O)OC)ccc2O)c1 | active: 3.98 µM | – |
| S=c1[nH]nc(-c2ccc3ccccc3n2)n1-c1ccccc1 | active: 28.2 µM | – |
| Cc1cc2oc(C(=O)NCc3ccncc3)c(C)c2cc1C | inconclusive [inhibitor, partial curve] | – |
| COc1ccccc1C(=O)Nc1ccc(-c2nnc(SCC(=O)O)n2C)cc1 | inconclusive [inhibitor, single point] | – |
| COC(=O)c1nc(-c2ccccc2)oc1N(C)C | inconclusive [inhibitor, partial curve] | – |
| C=C1C[C@@]23C[C@@]1(O)CCC2[C@@]12C=CC(O)[C@](C)(C(=O)O1)C2C3C(=O)O (some centres not stated) | – | inactive: -5.07% |
| Cc1ccc(-c2noc(C3CCCN(S(=O)(=O)c4ccc5ccccc5c4)C3)n2)o1 (configuration not stated) | active: 20 µM | – |
| COC(=O)c1c(NC(=O)c2ccc(Br)o2)sc(C)c1C | inconclusive [inhibitor, partial curve] | – |
| Cc1ccc(/C=c2\sc3nc(-c4ccco4)nn3c2=O)o1 | active: 17.8 µM | – |
| O=C(COC(=O)c1ccc(Cl)s1)c1cc2ccccc2o1 | active: 35.5 µM | – |
| CN1C(=O)c2ccc(NC(=O)c3ccc(N4CCCCC4)c([N+](=O)[O-])c3)cc2C1=O | inconclusive [inhibitor, partial curve] | – |
| Oc1ccc(-c2n[nH]c(=S)n2Cc2ccccc2)cc1 | inconclusive [inhibitor, single point] | – |
| Cc1c(NC(=O)CCCOc2ccccc2)cccc1[N+](=O)[O-] | – | inactive: -12.9% |
| CCOC(=O)c1cc(NC(=O)N2CCCCC2)c(C)nc1C | – | inactive: -6.45% |
| CCOC(=O)c1[nH]c2ccc(OCC)cc2c1NC(=O)CN1CCCC(C)C1 (configuration not stated) | inconclusive [inhibitor, partial curve] | – |
| O=c1cc(-c2cccc(-c3ccc(C(F)(F)F)cc3)c2)c2cc3c(cc2o1)OCO3 | – | inactive: -11.8% |
| Clc1cccc(-c2cc3nc4c(c(NCc5ccco5)n3n2)CCCC4)c1 | inconclusive [inhibitor, partial curve] | – |

| Structure (SMILES) | Potency | activity change, negative = inhibition |
| --- | --- | --- |
| O=C(NC1=NCCS1)c1cc(-c2ccc(-c3ccccc3)cc2)nc2ccccc12 | inconclusive [inhibitor, single point] | – |
| COc1ccc(Cn2c(=O)[nH]c3cc(C(=O)Nc4ccc(N5CCN(C)CC5)cc4)ccc32)cc1 | inconclusive [inhibitor, single point] | – |
| Cn1c(=O)[nH]c2sc3c(c2c1=O)CC(C)(C)OC3 | inconclusive [inhibitor, single point] | – |
| OCc1ccnc2c(O)cccc12 | – | inactive: -8.82% |
| S=c1[nH]nc(-c2ccco2)n1/N=C/c1ccc(Cl)cc1 | active: 3.55 µM | – |
| COc1ccc2cc(S(=O)(=O)NCCCN3CCOCC3)ccc2c1 | – | inactive: -15.9% |
| O=C(NC1CCCC1)c1cc2c(ccc3ccccc32)o1 | inconclusive [inhibitor, partial curve] | – |
| Cc1oc(C)c2c(=O)ccc3c(c12)OC(N)=C(C#N)C3c1ccccc1 (configuration not stated) | – | inactive: -10.6% |
| COCCn1c(=O)c(-c2cccs2)nc2cnc(Oc3cccc(Cl)c3)nc21 | inconclusive [inhibitor, partial curve] | – |
| COc1ccccc1C(=O)NCC(=O)N/N=C/c1cc(Br)ccc1OC(=O)/C=C\c1ccco1 | – | inactive: -22.4% |
| Cn1c(C(=O)OCC(=O)NCc2ccco2)cc2sccc21 | inconclusive [inhibitor, partial curve] | – |
| COc1ccc(/C=C/C(O)=C2/C(=O)N(C)C3(C)CC2c2ccccc2O3)cc1 (configuration not stated) | inconclusive [inhibitor, partial curve] | – |
| CC(=O)N1CCc2cc(C(=O)CN3CCCCC3)ccc21 | active: 15.8 µM | – |
| CCCc1nc2c(sc3nc4c(cc32)COC(C)(C)C4)c(=O)n1Cc1ccco1 | inconclusive [inhibitor, partial curve] | – |
| COc1ccc(NC(=O)c2cc(-c3ccccc3)nc3c2c(C)nn3-c2ccccc2)c(OC)c1 | inconclusive [inhibitor, partial curve] | – |
| CN1C(=S)N(c2ccccc2)C(=O)/C1=C/c1cccs1 | – | inactive: -23.5% |
| COc1ccccc1C(=O)NCCn1cc(SCC(=O)NCc2ccco2)c2ccccc21 | inconclusive [inhibitor, partial curve, poor fit] | – |
| CCNc1nc(N)c(C(=C(C#N)C#N)c2ccccc2)s1 | inconclusive [inhibitor, partial curve] | – |
| COc1cccc(Cn2c(=O)c(C)nc3cnc(OCc4ccccc4)nc32)c1 | – | inactive: -21.5% |
| O=c1c(-c2ccc(F)cc2)nc2cnc(N3CCOCC3)nc2n1C[C@H]1CCCO1 | – | inactive: -24% |
| Cc1[nH]nc2ncc(C(=O)c3cc(F)ccc3O)cc12 | inconclusive [inhibitor, single point] | – |
| CC(C)OC(=O)CSc1n[nH]c(-c2cccnc2)n1 | active: 15.8 µM | – |
| CC1CN(c2oc(COc3ccc(Cl)cc3Cl)nc2C#N)CC(C)O1 (configuration not stated) | inconclusive [inhibitor, partial curve] | – |
